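1) Cells in 96-well plates. 2) Compound, 48 h, 5 concentrations. 3) Linear interpolation between surrounding doses. 4) Unreached endpoint = highest concentration. Here, GI50 denotes the concentration required for 50% inhibition of growth. TGI denotes the concentration required for complete inhibition of growth.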
Test system: NCI-H322M lung
Assay: NCI-60 cell line screen, 48 h

SMILES: O=C(CSc1nc2sc3c(c2c(=O)n1-c1ccc(Cl)cc1)CCCC3)NNC(=O)Nc1ccc(Cl)c(C(F)(F)F)c1
- GI50: 4.95 µM
- TGI: > 100 µM

SMILES: Oc1ccccc1/C=N/Nc1nc(N/N=C/c2ccccc2O)nc(N2CCOCC2)n1
- GI50: 4.55 µM
- TGI: > 100 µM

Source: PubChem BioAssay (NCI)
